Experimental data reported in paper PMC12136788.
The other results are listed elsewhere or left out.

T1: UNK ZnF1-6 (called full-length) (human, UniProt Q9C0B0 30-357)
T1 sequence: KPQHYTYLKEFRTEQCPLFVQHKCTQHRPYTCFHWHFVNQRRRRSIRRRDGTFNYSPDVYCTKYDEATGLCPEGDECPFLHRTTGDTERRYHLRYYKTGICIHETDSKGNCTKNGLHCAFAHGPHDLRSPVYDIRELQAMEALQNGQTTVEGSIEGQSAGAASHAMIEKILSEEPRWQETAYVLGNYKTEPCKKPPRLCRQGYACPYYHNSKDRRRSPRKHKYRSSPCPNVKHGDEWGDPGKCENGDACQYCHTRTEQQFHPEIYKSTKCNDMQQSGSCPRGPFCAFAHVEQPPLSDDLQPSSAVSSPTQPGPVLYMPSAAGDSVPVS

B1: chr8:35759345:35759454:+|CDS|ENSG00000156687|unk|total|mutant (ssRNA)
RNA: GGGAGUUCUACAGUCCGACGAUCCAUCAAGGUGGACAGCUCCUGGAAGAACCAAAAUUGCUGCAUUUCAAAGGGAAUACCUUCCGUCUUCAGAUUUCUGUCCUUGAUAUUCCCCCAUUCCUCUGGAGAAUUAAACCAUUCACUCAACAGAGGAUUGAGCAUCA
B2: chr10:126015758:126015859:-|3pUTR|ENSG00000148848|msi1|total|mutant (ssRNA)
RNA: GGGAGUUCUACAGUCCGACGAUCAAAUACUCAGAUAAGGUAAAAUGCCAUGAUGCCUCUGUCUUCUGGACUGGUUUUCACAUCCGAAGACAAUUGACAACAGUUACAUAAUUCACUCUGAGUGUUUUAUGAGAAAGCCUUCUUCAACAGAGGAUUGAGCAUCA
B3: ENSG00000198589:be:win_5851|CDS|ENSG00000198589|bound_else_gene|NA|bound_elsewhere_windowed (ssRNA)
RNA: GGGAGUUCUACAGUCCGACGAUCACUCAACUAAUCCAGAAAAUUAUCAACAUUCUCACAGACAAGCAUGGAGCCUGGGGAAAUUCUGCAGUGAGUCGUCCUCUUGAGUUCUGGCGCCUUGACUACUGGGAAGAUGACUUGCGGCAACAGAGGAUUGAGCAUCA
B4: chr12:79773885:79773986:-|3pUTR|ENSG00000058272|msi1|total|mutant (ssRNA)
RNA: GGGAGUUCUACAGUCCGACGAUCGGUUAUUUAUUCUUUGUAUCUAAAACUGAACAGCUACUGUGCUAUAUUGAUUUUAUUGGCCGUAUUGAGCAGACCUUGUUUCUGCAUGAAACCCGUUGCAAAACCCACUAUUUUGGAAAUCAACAGAGGAUUGAGCAUCA
B5: chr12:76029359:76029534:-|3pUTR|ENSG00000139289|msi1|total|mutant (ssRNA)
RNA: GGGAGUUCUACAGUCCGACGAUCAGAAGUUUAAAAAGCUAAAAGUUAAAAAUGGUGUAAUUAUGAAAAUCUAACACUCAAGACCGUUUCUAAAAGGAAAUCAGCCGUUAAGGAUACCUGAUUUCAAAAUAUUUAAAGCAUAACCAACAGAGGAUUGAGCAUCA
B6: chr2:27433287:27433389:+|CDS|ENSG00000115216|unk|FALSE|unique (ssRNA)
RNA: GGGAGUUCUACAGUCCGACGAUCUUCCAGCAUGUCGGAGGGGGAGUCCCAGACAGUACUUAGCAGUGGCUCAGACCCAAAGGUAGAAUCCUCAUCUUCAGCUCCUGGCCUGACAUCAGUGUCACCUCCUGUGACCUCCACAACCAACAGAGGAUUGAGCAUCA
B7: chr6:142752714:142752806:-|3pUTR|ENSG00000010818|msi1_unk|total|mutant (ssRNA)
RNA: GGGAGUUCUACAGUCCGACGAUCUUUUCUUUACUUUGCUUAUAUUCUUAUAAGCAUUUUUCCGCAGUAAUUUGUACAUAUUUCCGAAUUUGUGUAUCUGCUUUGUAAUAAAUGUAAUUUCUUUCCUUUUUUGGACACUUGGAUCAACAGAGGAUUGAGCAUCA
B8: chr8:19954154:19954263:+|CDS|ENSG00000175445|unk|total|mutant (ssRNA)
RNA: GGGAGUUCUACAGUCCGACGAUCACCUAACUUUGAGUAUGCAGAAGCCCCGAGUCGUCUUUCUCCUGAUGAUGCAGAUUUUGCCGACGUCUUACACACAUUCACCAGAGGGUCCCCUGGUCGAAGCAUUGGAAUCCAGAAACCCAACAGAGGAUUGAGCAUCA
B9: chr4:75577918:75578020:-|3pUTR|ENSG00000138769|unk|total|mutant (ssRNA)
RNA: GGGAGUUCUACAGUCCGACGAUCGGUUGUUCCGGGAACCAGAAUUUGUGAGUUUUUUUUUUUUUUUUGCCUUAACUAAUUAACCGUGUGUUGCUUUUUUUCCAAAGCCAUUGACCCGAACUCCGCUGAAGAAUUUAACCCGAACAACAGAGGAUUGAGCAUCA
B10: chr1:225496770:225496921:-|3pUTR|ENSG00000154380|msi1|total|mutant (ssRNA)
RNA: GGGAGUUCUACAGUCCGACGAUCUUUUUUAAUUGCAGACAGUAAUGCAUGUCACACUAAUAUGCCGUGGCCUUUUCAAGGCCCCGUCCCAGGGAAAACAUUUUGCCGAGUACCGGGGAGUGGGAGGAAGGGGAGGAAUAAUUUCAACAGAGGAUUGAGCAUCA
B11: chr8:79641408:79641533:+|CDS|ENSG00000104435|unk|FALSE|unique (ssRNA)
RNA: GGGAGUUCUACAGUCCGACGAUCCCAGGCUUUUGAGCUGAUCUUGAAGCCACCAUCUCCUAUCUCAGAAGCCCCACGAACUUUAGCUUCUCCAAAGAAGAAAGACCUGUCCCUGGAGGAGAUCCAGAAGAAACUGGAGGCUGCCAACAGAGGAUUGAGCAUCA
B12: chr13:47936490:47936773:-|three_prime_utr|ENSG00000136143|control|control|control (ssRNA)
RNA: GGGAGUUCUACAGUCCGACGAUCCAGAGAAGCAUCUUUUUAUUUGUUUUUGAUAUCCUUGUUUGAUGAAACCAGCAUCGUUUUAGAAAAAAUAUCUUUGUUUUAGUAAAAAUGACACAUACUCAUUGAAAAAAUAAACCCCUUCAACAGAGGAUUGAGCAUCA
B13: chrX:51682015:51682831:-|CDS|ENSG00000283093|control|control|control (ssRNA)
RNA: GGGAGUUCUACAGUCCGACGAUCCAGUGCCCCCGGGUCCAAGUCGGGGUCGGGAGCCACGCGGCGGCCAAGAGGUGGCUGGGUAGGUGGCGACGGAAGCGCCGCUGGCGGCGGGUCCGGAAGGCGGGCCCCAGAGACCUGCUGCAACAGAGGAUUGAGCAUCA
B14: chr2:1632960:1633155:-|3pUTR|ENSG00000130508|msi1|FALSE|unique (ssRNA)
RNA: GGGAGUUCUACAGUCCGACGAUCGUCCAUUUUUUAGGUAUUAGAUAUGGCAGAAAAACCAUUUCCACUAUGCAAAGUUCUUUUAGACGUCAGUGAAAAUCAACUCUCAUACCUCAUGGUCUCUCUUUAAUUGACCAAAACCUUCAACAGAGGAUUGAGCAUCA

target: T1, UNK ZnF1-6 (called full-length); assay: nsRBNS (natural sequence RNA bind-n-seq); RBNS binding buffer (assumed for nsRBNS): 25 mM Tris pH 7.5, 150 mM KCl, 3 mM MgCl2, 0.01% Triton X-100, 500 ug/ml BSA, 20 U/ml SUPERase-In, 4 C; UNK is unkempt and MSI1 is Musashi-1; names of the RNAs are library labels; protein concentration not given here; high values mean tight binding

Row | Binder | binding signal
1 | B1 | 0.378 enrichment R
2 | B2 | 0.255 enrichment R
3 | B3 | 0.85 enrichment R
4 | B4 | 0.588 enrichment R
5 | B5 | 0.525 enrichment R
6 | B6 | 0.848 enrichment R
7 | B7 | 0.576 enrichment R
8 | B8 | 0.688 enrichment R
9 | B9 | 1.76 enrichment R
10 | B10 | 1.22 enrichment R
11 | B11 | 0.628 enrichment R
12 | B12 | 5.18 enrichment R
13 | B13 | 6.11 enrichment R
14 | B14 | 0.915 enrichment R
